This is one part of the list. At the low end of the ranking, values are background and their order means little.

The assay concerns T1, GST-NbGlk1(82-244).
T1 sequence: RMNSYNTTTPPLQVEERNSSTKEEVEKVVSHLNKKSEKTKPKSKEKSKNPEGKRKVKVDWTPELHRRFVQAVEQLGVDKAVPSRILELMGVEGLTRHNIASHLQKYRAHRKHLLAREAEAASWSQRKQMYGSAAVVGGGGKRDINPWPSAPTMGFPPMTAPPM
As to the kind of experiment: protein-binding microarray.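 Note: rank-based score ranging −0.5 to +0.5 with E above 0.45 taken as significant binding.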 As to conditions: NbGlk1 is a Golden2-like transcription factor of Nicotiana benthamiana; high values mean tight binding; most listed sequences are background and not binding sites; double strand, one strand shown.
AATGGTAA came in with a binding signal of 0.102 E-score.
For AGCGTTAC the value was 0.0495 E-score.
For the sequence AGCGCCTC, the binding signal was -0.25 E-score.
The value for AGCGTCCC was -0.28 E-score; that for AGATTAGG was 0.169 E-score.
The value for ACCTGCAG was -0.0841 E-score; that for ATAGTGTA was 0.12 E-score.
AATAAAAG displayed a binding signal of 0.0679 E-score.
For ATTAACCC the value was -0.108 E-score; for AGCACGAC, -0.119 E-score; for AATTACTG, 0.0348 E-score.
For CAAGACGG the value was -0.118 E-score.
As to AGCAATGC, the binding signal is -0.0664 E-score.
Sequence ATCAACCC registered a binding signal of -0.0287 E-score.
For the sequence ACGGGGGG, the binding signal is -0.1 E-score.
For AAGGCAAT the value was 0.139 E-score; for AGAACTCT, -0.0898 E-score.
For CAGCGCGG the value was -0.0304 E-score; for ACCCAGAA, 0.111 E-score.
For AACGTATA the value was 0.225 E-score; for ACGGAAGA, -0.00243 E-score.
In the case of AGGCGAAG, the binding signal was -0.114 E-score.
The value for AACCTCCC was -0.179 E-score; that for ACCCTGCG was -0.16 E-score.
For AAACGGAC the value was -0.0913 E-score; for AGGAGCAC, -0.24 E-score.
CAGAAATG: the binding signal was -0.00514 E-score.
The sequence ACCCGGCT displayed a binding signal of -0.191 E-score.
For ATGCAGGC the value was -0.104 E-score.
The value for AGCCATTG was -0.13 E-score.
ACTTGCCT had a binding signal of -0.0243 E-score.
Consider ATCTGAAG, for which the binding signal came to 0.222 E-score.
For ATGCCGGC, the binding signal is -0.0516 E-score.
The value for AACCGCAC was -0.0605 E-score.
The value for AATAAATT was 0.226 E-score; that for AAAATAGC was 0.0386 E-score; that for AATTCACG was 0.088 E-score.
The value for AGGGGGAG was -0.107 E-score.
In turn, ATGATTCC gave a binding signal of 0.306 E-score.
The value for ACCCCCTG was -0.359 E-score; that for AATAAGTA was 0.128 E-score.
For CACTGGCA the value was -0.243 E-score.
For AGAGCTAC the value was -0.114 E-score; for AGATGCAC, -0.149 E-score.
For AGTCTAGA, the binding signal is 0.0088 E-score.
For AGGCGCGG the value was -0.0782 E-score; for CACTTGGG, -0.15 E-score.
Regarding CAGAAAAA, the binding signal was found to be 0.00255 E-score.
The value for ATCTTATA was 0.342 E-score; that for AAAAGGCA was -0.186 E-score.
The value for AAAGCCTT was -0.138 E-score; that for AAAATGCC was -0.104 E-score; that for AATTTACG was 0.176 E-score.
For the sequence ATATCTCG, the binding signal was 0.435 E-score.
In turn, ACAACTTA showed a binding signal of 0.0393 E-score.
Consider AACTTCTC, for which the binding signal is 0.115 E-score.
The value for AAATGACG was 0.0381 E-score.
The value for ACTAGTGG was -0.0537 E-score; that for AGGTACCA was -0.028 E-score.
For AACGCAAC the value was 0.128 E-score; for AGCTGAGG, -0.28 E-score; for ACCGCGGC, -0.192 E-score.
Sequence AGCTACAG had a binding signal of -0.126 E-score.
In turn, ATCTTTCC returned a binding signal of 0.218 E-score.
For AATATCCT the value was 0.389 E-score; for ACGAATGA, 0.144 E-score; for AGCTGGAT, 0.0562 E-score.
For AATCTTAG the value was 0.393 E-score; for AAATCCTA, 0.417 E-score; for ATCTACCG, 0.225 E-score.
AGCGCGAC had a binding signal of -0.0554 E-score.
The sequence CAGAAAGG registered a binding signal of -0.202 E-score.
In turn, CACCACTC had a binding signal of -0.0259 E-score.
The value for ATGGAGTA was -0.0794 E-score.
The value for AGTCCTGG was -0.179 E-score; that for ATCAGCGA was 0.229 E-score.
For ACGTGAAA the value was 0.166 E-score.
In turn, ACAATAAA had a binding signal of 0.0947 E-score.
The value for ATGACAAC was -0.0555 E-score; that for ATTTCTCC was 0.242 E-score.
For CAAAGCGA the value was 0.0538 E-score; for ATGCTTGA, -0.0677 E-score; for AACCACAG, -0.199 E-score.
The value for ACAAGAAT was 0.273 E-score; that for AGCAAGCC was -0.176 E-score.
Take AGGATATG: the binding signal was determined as 0.301 E-score.
The value for AAGAGACA was -0.0701 E-score; that for ACCCCCAA was -0.191 E-score; that for ACGCGTAT was 0.211 E-score.
For ATTCTAGG the value was 0.131 E-score; for ATCCTGAA, 0.165 E-score; for CACTATAA, 0.0227 E-score.
For ATGGTCGG the value was -0.194 E-score.
The sequence ATGCCGCA yielded a binding signal of 0.0127 E-score.
The value for AGATTCGA was 0.389 E-score; that for AGCGCCAA was -0.114 E-score.
Sequence ATACACAT came in with a binding signal of 0.17 E-score.
CACCCGTG yielded a binding signal of -0.219 E-score.
Regarding CAATAACG, the binding signal is -0.0392 E-score.
The value for CACCTTGA was -0.152 E-score; that for CAGAACCG was -0.0407 E-score; that for ACCGTCAC was -0.265 E-score.
For AATAGACC the value was -0.219 E-score; for ACTGACTA, -0.139 E-score; for ACACCCTC, -0.0916 E-score.
The sequence ACACTTAA gave a binding signal of 0.0457 E-score.
The value for ATCTCAGA was 0.303 E-score; that for ACTACCAC was -0.0504 E-score; that for ATGCACAC was -0.0981 E-score.
For ATGCGGAC the value was -0.158 E-score; for AACCCAAT, 0.000357 E-score.
For AGCTAATG the value was -0.119 E-score; for ATATCGGA, 0.369 E-score.
The sequence AGTTCCAT displayed a binding signal of -0.109 E-score.
The value for ACCCCCCC was -0.353 E-score; that for AGCAACCC was -0.142 E-score.
For AAAGTGTG the value was -0.114 E-score; for AGCTTGCC, -0.311 E-score; for AGCGATAA, -0.0738 E-score.
The value for ATGACATG was 0.0132 E-score.
ATACCATA: the binding signal came to 0.179 E-score.
The value for AGTTCGAC was -0.151 E-score.
The value for ATTGCGAG was 0.24 E-score; that for AGGGTGAA was -0.113 E-score; that for AATACGCC was 0.0613 E-score.
The value for AGCCAGCT was -0.327 E-score; that for CACTTTGG was -0.063 E-score.
As to AATTCTTG, the binding signal turned out to be 0.133 E-score.
For ACAATAGT the value was 0.118 E-score; for AGACCGCT, -0.192 E-score; for CACATTTC, 0.0379 E-score.
For AAGTGCCT the value was -0.262 E-score; for AGTTGAAA, 0.153 E-score; for AGCCGCGC, -0.308 E-score.
The value for AAGACAGC was -0.0552 E-score; that for AGGGCTGG was -0.193 E-score.
For AGCATGAT, the binding signal is -0.00221 E-score.
For AGTTGCCG the value was -0.19 E-score.
ACATACCG: the binding signal is -0.0232 E-score.
The value for ACCCAGGC was -0.209 E-score; that for AAGTGCGC was 0.0324 E-score.
Regarding AGAATAAG, the binding signal was -0.0508 E-score.
Regarding AAGGACGT, the binding signal was -0.183 E-score.
The sequence ATTCTTCA showed a binding signal of 0.324 E-score.
Sequence CACGTGAA displayed a binding signal of 0.00106 E-score.
ACAGCACA: the binding signal is -0.233 E-score.
The value for ATACGGTA was 0.197 E-score.
The value for AGGCGCGC was -0.0749 E-score.
The value for ACGATTAG was -0.00815 E-score.
For ACGAACAA, the binding signal was 0.0782 E-score.
For AACGACAT the value was -0.0321 E-score; for ACCCAAAA, 0.0753 E-score; for ATGTAAAA, 0.129 E-score.
The value for ACGTCCTA was 0.00748 E-score; that for ACCAGCTA was -0.125 E-score.
For the sequence CACACAAG, the binding signal is -0.0263 E-score.
For ACAGGATG the value was -0.18 E-score; for ATATACGA, 0.236 E-score; for AGGAGGCG, -0.259 E-score.
For ATCTTGTG the value was 0.318 E-score; for AAGTAGCG, -0.0266 E-score.
For CACGTAAA the value was -0.0233 E-score; for AGGCGATG, -0.149 E-score.
Take ATGGCTGC: the binding signal was -0.188 E-score.
For ATCCAAAG the value was 0.246 E-score.
Regarding ATGGACAC, the binding signal is -0.0337 E-score.
The value for ACCAAGGG was -0.222 E-score.
The value for ATGACACG was -0.0789 E-score.
In the case of AGCTTTTC, the binding signal was -0.0883 E-score.
For AAAGTCGT the value was 0.0123 E-score; for AGGATAAT, 0.238 E-score; for AAAGTTAG, -0.0475 E-score.
Take ACAAATCC: the binding signal came to 0.337 E-score.
The value for CACATTCC was 0.162 E-score.
Regarding ATCGCCTG, the binding signal came out at 0.149 E-score.
The value for AGACAAGA was 0.0454 E-score; that for AGCCGGCG was -0.285 E-score; that for AAAACGTG was -0.144 E-score.
For ACCCTACT the value was -0.0313 E-score.
The value for ACACTTCC was -0.00371 E-score.
Take AACTAGTA: the binding signal was -0.0582 E-score.
The value for AGGCGGGC was -0.252 E-score; that for CAAACCCA was -0.126 E-score.
For CACAGTCC the value was -0.16 E-score.
The value for AAAGCGAG was -0.0323 E-score; that for AATCGAAC was 0.213 E-score; that for ACGCTTCA was -0.116 E-score.
On to AATGGACA, for which the binding signal was -0.0091 E-score.
In the case of ACATCCAC, the binding signal came out at 0.0579 E-score.
Turning to AGAATTGG, the binding signal was -0.0169 E-score.
For CACCCAGA the value was -0.0163 E-score; for AAAGAGCT, -0.241 E-score; for AATATAAA, 0.254 E-score.
The value for CAAACACA was 0.0306 E-score; that for AGTGTCGC was -0.0439 E-score.
For ACTTTCTC the value was -0.0359 E-score.
The sequence ACGGTTTC displayed a binding signal of -0.173 E-score.
As to CACCGGCA, the binding signal was -0.261 E-score.
In the case of ACTGATTG, the binding signal turned out to be 0.207 E-score.
The value for CAGAGTAC was -0.264 E-score; that for ACTGCATC was -0.0476 E-score.
The value for ATGTTGCA was 0.0286 E-score; that for AGCTAAAC was -0.114 E-score; that for ACATCGAA was 0.0681 E-score.
The value for ACTCCTCA was -0.235 E-score; that for ACAATGAG was -0.0284 E-score.
Sequence CACCGCGA gave a binding signal of 0.00808 E-score.
As for ATACCCCA, the binding signal was 0.0124 E-score.
The value for CACTTCTG was -0.066 E-score; that for AGAAGAAG was -0.084 E-score.
For ATTCTATC the value was 0.261 E-score.
For AGTAGACA the value was -0.0649 E-score.
In turn, AACTCCCT had a binding signal of -0.215 E-score.
AAAGGGGG came in with a binding signal of -0.171 E-score.
For AGGATTGA the value was -0.0796 E-score; for ACGGTTAC, 0.00366 E-score.
The value for AACATTAT was 0.0473 E-score; that for AACAGTCC was -0.12 E-score; that for AAGACCCT was -0.264 E-score.

The values above are taken from article PMC5836133.
